Measured values from a collection of fitness landscapes (doi:10.1016/j.celrep.2020.107928).
Whole data set: some 81,000 sequences, median “one-hybrid fitness for binding parS DNA” near -0.17, cut for the highest 2% near 0.51. The list shows a part of the results.

B1: Caulobacter ParB omega fusion; a variant is named by its letters at X, in order, B8GW30 (parent)
chain: MESVVVGEPGMSEGRRGLGRGLSALLGEVDAAPAQAPGEQLGGSREAPIEILQRNPDQPRRTFREEDLEDLSNSIREKGVLQPILVRPSPDTAGEYQIVAGERAWRAAQRAGLKTVPIMVRELDDLAVLEIGIIENVQRADLNVLEEALSYKVLMEKFERTQENIAQTIGKSXSHVANXMRLLXLPDEVQSYLVSGELTAXHARAIAAAADPVALAKQIIEGGLSVRETEALARKAPNLSAGKSKGGRPPRVKDTDTQALESDLSSVLGLDVSIDHRGSTGTLTITYATLEQLDDLCNRLTRGI

Variants of: B1
Assay: one-hybrid fitness for binding parS DNA (scaled: cognate 1, non-cognate 0); higher = stronger binding
Details: with parS DNA site
Summary of the method: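 In E. coli USO, a HIS3 reporter with its site placed 19 bp from the promoter was used to select Caulobacter ParB variants randomised at four specificity codons. Growth lasted 48 hours at 37°C on histidine-free M9 containing 0.1 mM IPTG and 5 mM 3-AT. Fitness was taken as the log change in variant-to-wild-type read ratio from Illumina sequencing of pre- and post-selection plasmids, rescaled between the non-cognate and cognate sites.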

Variant	one-hybrid fitness for binding parS DNA
NSVL	≤ 0.2
TRAI	≤ 0.2
RRGF	≤ 0.2
LQEA	≤ 0.2
GTCL	≤ 0.2
QKLC	≤ 0.2
GSYT	≤ 0.2
ARIS	≤ 0.2
CRIA	≤ 0.2
SLPP	≤ 0.2
KFGR	≤ 0.2
SQHN	≤ 0.2
KRMR	≤ 0.2
YIQG	≤ 0.2
IRRQ	≤ 0.2
RLAC	0.995
QYHL	≤ 0.2
QLTN	≤ 0.2
PCSQ	≤ 0.2
SHGM	≤ 0.2
RREQ	≤ 0.2
SIPE	≤ 0.2
WMKS	≤ 0.2
HEMV	≤ 0.2

Variant	one-hybrid fitness for binding parS DNA
PHGM	≤ 0.2
PFNQ	≤ 0.2
QFAA	≤ 0.2
KWCS	≤ 0.2
AFPR	≤ 0.2
GKPV	≤ 0.2
QHNG	≤ 0.2
HSCA	≤ 0.2
TCGL	≤ 0.2
RHEF	≤ 0.2
WCSC	≤ 0.2
DETW	≤ 0.2
PASK	≤ 0.2
PRVV	≤ 0.2
RESC	0.215
HGSM	≤ 0.2
SRPF	≤ 0.2
CRKH	≤ 0.2
CSQR	≤ 0.2
FIPM	≤ 0.2
NPQA	≤ 0.2
SAGG	≤ 0.2
QEEG	≤ 0.2
SQIC	≤ 0.2

Variant	one-hybrid fitness for binding parS DNA
RISS	0.992
SHII	≤ 0.2
WRHY	≤ 0.2
DKPS	≤ 0.2
VATT	≤ 0.2
LNRP	≤ 0.2
SGYK	≤ 0.2
GIKS	≤ 0.2
ARCA	≤ 0.2
KAPC	≤ 0.2
SRRN	≤ 0.2
PEKT	≤ 0.2
RPRD	≤ 0.2
EFNR	≤ 0.2
RHTR	≤ 0.2
QFNC	≤ 0.2
NKIS	≤ 0.2
RPSM	≤ 0.2
GRPY	≤ 0.2
QCLP	≤ 0.2
YLGN	≤ 0.2
HMMC	≤ 0.2
PLGS	≤ 0.2
YAIF	≤ 0.2

Variant	one-hybrid fitness for binding parS DNA
RIQH	≤ 0.2
RNKG	0.941
NAHV	≤ 0.2
NTKM	≤ 0.2
MKRA	≤ 0.2
LTCG	≤ 0.2
KACD	≤ 0.2
QCAG	≤ 0.2
QIAL	≤ 0.2
VLWS	≤ 0.2
PGTH	≤ 0.2
NILL	≤ 0.2
GLFD	≤ 0.2
KGKS	≤ 0.2
STKQ	≤ 0.2
KICR	≤ 0.2
AISL	≤ 0.2
ELKT	≤ 0.2
QRSQ	≤ 0.2
MFQG	≤ 0.2
YLLY	≤ 0.2
NYSV	≤ 0.2
ALMY	≤ 0.2
SFFG	≤ 0.2

Variant	one-hybrid fitness for binding parS DNA
TVDS	≤ 0.2
FQRA	≤ 0.2
QVRI	≤ 0.2
QHAI	≤ 0.2
YKNS	≤ 0.2
TMIL	≤ 0.2
PNSS	≤ 0.2
KTTH	≤ 0.2
AMMC	≤ 0.2
YAPV	≤ 0.2
THSA	≤ 0.2
KTSS	≤ 0.2
LVEL	≤ 0.2
HSHD	≤ 0.2
PAAY	≤ 0.2
QPES	≤ 0.2
CRMT	≤ 0.2
AQTA	≤ 0.2
GVNC	≤ 0.2
CSEC	≤ 0.2
PDTN	≤ 0.2
TCKS	≤ 0.2
NGRF	≤ 0.2
SMMC	≤ 0.2

Variant	one-hybrid fitness for binding parS DNA
VYCC	≤ 0.2
RGGP	≤ 0.2
EAQC	≤ 0.2
ISHG	≤ 0.2
ADMC	≤ 0.2
GGWT	≤ 0.2
MTTS	≤ 0.2
DISP	≤ 0.2
RILQ	≤ 0.2
PMSA	≤ 0.2
YYSL	≤ 0.2
QTHW	≤ 0.2
RRYF	≤ 0.2
QLCE	≤ 0.2
ETSM	≤ 0.2
ELKR	≤ 0.2
LEGS	≤ 0.2
AKGA	≤ 0.2
VVQN	≤ 0.2
LQNY	≤ 0.2
RKAG	0.959
IVKF	≤ 0.2
CPLS	≤ 0.2
YVMT	≤ 0.2

Variant	one-hybrid fitness for binding parS DNA
RGLM	≤ 0.2
YRNC	0.296
PPYN	≤ 0.2
CVLT	≤ 0.2
TCYW	≤ 0.2
LWNT	≤ 0.2
ECPS	≤ 0.2
HIFR	≤ 0.2
LRRN	≤ 0.2
DTQR	≤ 0.2
HHMS	≤ 0.2
LPSF	≤ 0.2
SPIS	≤ 0.2
CSSG	≤ 0.2
GPAI	≤ 0.2
RVKC	0.813
VFMG	≤ 0.2
MPRH	≤ 0.2
GWHV	≤ 0.2
PCFT	≤ 0.2
TISN	≤ 0.2
GHPS	≤ 0.2
LPYH	≤ 0.2
MFRF	≤ 0.2

Variant	one-hybrid fitness for binding parS DNA
SLHV	≤ 0.2
ENIT	≤ 0.2
LPFG	≤ 0.2
QQRK	≤ 0.2
YRTW	≤ 0.2
GLTL	≤ 0.2
IGLT	≤ 0.2
MTII	≤ 0.2
VRKY	≤ 0.2
IFLY	≤ 0.2
MDAV	≤ 0.2
DRNS	≤ 0.2
IYKI	≤ 0.2
MIME	≤ 0.2
NIQC	≤ 0.2
QMIT	≤ 0.2
PEDC	≤ 0.2
TNHD	≤ 0.2
KMNY	≤ 0.2
RMYR	0.225
FNKL	≤ 0.2
RNTH	≤ 0.2
EMIR	≤ 0.2
HRLD	≤ 0.2

Variant	one-hybrid fitness for binding parS DNA
GCST	≤ 0.2
PFER	≤ 0.2
VISK	≤ 0.2
KKPC	≤ 0.2
VIDR	≤ 0.2
DPQD	≤ 0.2
FPFF	≤ 0.2
CFML	≤ 0.2
TMEG	≤ 0.2
TYLT	≤ 0.2
GLMG	≤ 0.2
RMYP	≤ 0.2
DTAV	≤ 0.2
VPYS	≤ 0.2
KLMT	≤ 0.2
NPDR	≤ 0.2
HSAG	≤ 0.2
HVVD	≤ 0.2
DVRA	≤ 0.2
THML	≤ 0.2
ANGA	≤ 0.2
TKLI	≤ 0.2
VPLS	≤ 0.2
HSPH	≤ 0.2

Variant	one-hybrid fitness for binding parS DNA
SEHG	≤ 0.2
SCWG	≤ 0.2
HYIY	≤ 0.2
KRYG	≤ 0.2
RHPK	≤ 0.2
SHER	≤ 0.2
ASST	≤ 0.2
FCND	≤ 0.2
AYGK	≤ 0.2
NANR	≤ 0.2
YLMC	≤ 0.2
GPDK	≤ 0.2
IVCS	≤ 0.2
RMRS	0.868
KRQK	≤ 0.2
QAEY	≤ 0.2
YTTN	≤ 0.2
VWIS	≤ 0.2
ECPA	≤ 0.2
TRGY	≤ 0.2
FSPC	≤ 0.2
IITW	≤ 0.2
VSDA	≤ 0.2
NAGV	≤ 0.2

Variant	one-hybrid fitness for binding parS DNA
TRYQ	≤ 0.2
MYRM	≤ 0.2
FDTC	≤ 0.2
GFVG	≤ 0.2
RSNV	≤ 0.2
IDKY	≤ 0.2
YSSR	≤ 0.2
NMRR	≤ 0.2
TMTL	≤ 0.2
QQTI	≤ 0.2
PKNM	≤ 0.2
STIR	≤ 0.2
DKIC	≤ 0.2
YDTP	≤ 0.2
MSYR	≤ 0.2
GRNF	≤ 0.2
VCPA	≤ 0.2
RVGL	≤ 0.2
MCSS	≤ 0.2
RRNN	0.811
AFTI	≤ 0.2
TNNY	≤ 0.2
QHMC	≤ 0.2
FPWR	≤ 0.2

Variant	one-hybrid fitness for binding parS DNA
QNLK	≤ 0.2
AYRD	≤ 0.2
ALSG	≤ 0.2
LYYS	≤ 0.2
TQST	≤ 0.2
EMCR	≤ 0.2
LPTT	≤ 0.2
FYYR	≤ 0.2
FAEG	≤ 0.2
CHTA	≤ 0.2
NIVR	≤ 0.2
SCKA	≤ 0.2
NGPS	≤ 0.2
MLCG	≤ 0.2
PPGN	≤ 0.2
DGNA	≤ 0.2
MWYG	≤ 0.2
RRVH	≤ 0.2
EKRV	≤ 0.2
NMDV	≤ 0.2
PDTT	≤ 0.2
HQFS	≤ 0.2
KDWW	≤ 0.2
ERSL	≤ 0.2

Variant	one-hybrid fitness for binding parS DNA
ETKL	≤ 0.2
KPLL	≤ 0.2
CPYN	≤ 0.2
PINC	≤ 0.2
IVPC	≤ 0.2
PTQG	≤ 0.2
YMAL	≤ 0.2
LVVD	≤ 0.2
YPRR	≤ 0.2
KQMI	≤ 0.2
LHYS	≤ 0.2
HVKA	≤ 0.2
TNPL	≤ 0.2
CRIR	≤ 0.2
SEQQ	≤ 0.2
HHLW	≤ 0.2
SVQD	≤ 0.2
QVCV	≤ 0.2
